From PubChem BioAssay AID1159614 (National Center for Advancing Translational Sciences (NCATS), 2016)
Screen size: about 45,000 compounds; about 65 (0.1%) were called active. Calls follow the shape of the dose curve; as a rule, active = well fitted activation curve with a large enough effect; inconclusive = small, poorly fitted or top-dose-only effect; inactive = no such curve, though single readings can be large or run the other way. Some of the results follow.

Biological target: Galactocerebrosidase (Homo sapiens) (UniProt P54803)
Assay: A Novel Cell-Based Assay to Identify Small Molecules for B -Galactocerebrosidase; also: 0% is about no effect; nearly all actives have a fitted effect of over 65% in size
Settings: 145M-Twi-hGALC-G270D cells (Twitcher mouse brain line with human GALC G270D), HMU-beta-Gal fluorescence, 48 h; series mostly up to 57.5 µM; activation: at the top concentration
Method in brief: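 Live 145M-Twi cells (Twitcher mouse brain-derived, GALC-null) stably expressing human GALC-G270D, with a wild-type GALC line, were compound-treated. Residual GALC activity was then read as fluorescence from 0.1 mM final HMU-β-gal at pH 5.2; higher signal means activation.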

UniProt P54803, sequence (P54803 whole entry, looked up): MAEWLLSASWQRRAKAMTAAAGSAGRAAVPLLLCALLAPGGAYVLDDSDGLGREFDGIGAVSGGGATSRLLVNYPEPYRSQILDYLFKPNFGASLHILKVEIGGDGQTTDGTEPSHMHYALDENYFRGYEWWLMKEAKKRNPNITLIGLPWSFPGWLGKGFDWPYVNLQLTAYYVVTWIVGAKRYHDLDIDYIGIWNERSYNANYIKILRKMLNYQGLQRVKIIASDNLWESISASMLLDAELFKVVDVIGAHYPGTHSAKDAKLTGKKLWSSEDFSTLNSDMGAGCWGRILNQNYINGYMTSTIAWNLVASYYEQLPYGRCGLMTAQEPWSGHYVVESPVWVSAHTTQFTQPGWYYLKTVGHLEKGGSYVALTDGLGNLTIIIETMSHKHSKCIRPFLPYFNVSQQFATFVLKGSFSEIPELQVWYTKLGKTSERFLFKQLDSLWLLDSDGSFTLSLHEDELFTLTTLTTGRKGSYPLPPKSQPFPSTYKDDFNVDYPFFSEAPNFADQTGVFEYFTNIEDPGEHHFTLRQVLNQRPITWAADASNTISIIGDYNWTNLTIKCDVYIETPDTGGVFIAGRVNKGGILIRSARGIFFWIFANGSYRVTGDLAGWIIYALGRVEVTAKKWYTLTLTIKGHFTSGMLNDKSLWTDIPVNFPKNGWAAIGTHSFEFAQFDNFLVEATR

activation, inactive:
Cc1c(C)n(C)c2ccc(C(=O)NCc3cccc(F)c3)cc12 -7.06%
COc1cc2c(cc1NC(=O)COc1ccc(Cl)cc1Br)oc1ccccc12 -22.5%
CCOC(=O)CSc1nnc2n(-c3ccccc3)c(=O)c3c4c(sc3n12)CC(C(C)(C)C)CC4 (stereo unspecified) -29.2%
COc1ccc(C(=O)Nc2ccc(-n3nncc3-c3ccccc3)cc2)cc1OC -12.1%
Cc1cccc(N2CCN(C(=O)Cn3ncc4c5ccccc5n(C)c4c3=O)CC2)c1C -9.12%
Cc1cc2oc(=O)cc(C)c2c2occ(-c3ccc(Cl)cc3)c12 -18.4%
COc1cc(OC)cc(-c2cc3nc(C)c(CCC(=O)NCc4ccc(Cl)cc4)c(C)n3n2)c1 -12.1%
CCc1ccccc1Nc1nc2ccccc2c2nncn12 -4.51%
CCc1ccc(S(=O)(=O)c2cn(Cc3ccccc3)c3cc(F)c(F)cc3c2=O)cc1 -16.8%
Cc1ccc(-n2nc(CO)c(C(=O)NCc3cccnc3)n2)cc1 -5.59%
COc1ccc(OC)c(CNC(=O)C2CCN(c3nc4ccccc4nc3C(F)(F)F)CC2)c1 -14.8%
Cc1ccc(C)n1-c1nnc(N2CCCC(C(=O)NCc3cccc(F)c3)C2)s1 (stereo unspecified) 4.52%
Clc1ccc(C(c2ccccc2)c2c[nH]c3ccccc23)s1 (stereo unspecified) -4.6%
Cc1ccc2[nH]c3c(=O)n(CC(=O)N4CCCCC4)ncc3c2c1 -5.41%
CCCCc1c(C)nc2c(-c3ccc(OC)cc3)c(C)[nH]n2c1=O -1.01%
Cn1c(CN2CCCCC2)nc2cc(NC(=O)c3ccccc3Cl)ccc21 0.439%
CCCCNC(=O)CCCn1c(=O)c2ccccc2n(Cc2cccc(Cl)c2)c1=O 0.803%
Cc1ccc(OCC(=O)Nc2ccc3nc(SCC(=O)N4CCOCC4)sc3c2)cc1 -6.55%
COc1ccccc1NC(=O)CSc1ncc2c(n1)-c1cc(Cl)ccc1N(Cc1ccccc1)S2(=O)=O 5.84%
CCOC(=O)c1cccc(NS(=O)(=O)c2ccc(-c3cnc(C4CC4)o3)cc2)c1 -14.1%
NC(=O)c1nc(Nc2ccccc2)sc1NC(=O)c1ccccc1Br -9.31%
COc1ccc2nc(NC(=O)c3nc(SC(C)C)ncc3Cl)sc2c1 -15.4%
Cc1ccc(C(C)OC(=O)C2(C)CCC(C(=O)O)C2(C)C)cc1 (stereo unspecified) -8.77%
CCC(=O)N1CCc2cc(Br)cc(S(=O)(=O)CCC(=O)N3CCN(c4ccccc4F)CC3)c21 -33%
O=C(NC1CCCC1)c1cc(Nc2cccc(C(F)(F)F)c2)nc2ccccc12 -4.36%
Cc1ccc(S(=O)(=O)c2nc(S(C)(=O)=O)sc2N(C)Cc2ccccc2)cc1 -12.8%
Cc1cccc(NC(=O)C2CCC(CNS(=O)(=O)c3csc(C(N)=O)c3)CC2)c1C (stereo unspecified) -3.64%
Cc1nc2c(c(C)c1CCC(=O)NCc1ccccc1)c(=O)n(C)c(=O)n2C 6.14%
COc1cc(NC(=O)CSc2nc3ccccc3nc2Cc2ccc(Cl)cc2)cc(OC)c1 -5.01%
COCCCNC(=O)CSc1nc2c(sc3ccccc32)c(=O)n1CCc1ccccc1 -6.04%
CC(C)(C)c1ccc(OCC(=O)Nc2ccc(S(=O)(=O)Nc3ncccn3)cc2)cc1 -13.5%
CCOC(=O)c1cccc(NC(=O)c2cc3c(-c4cccc(OC)c4)nn(C)c3s2)c1 -12.5%
Cc1nn(C)c2c1c(-c1ccccc1)cc(=O)n2CC(=O)Nc1ccccc1C(F)(F)F -5.89%
O=C(NCCCc1nc2ccccc2n1Cc1c(F)cccc1Cl)C1CCCCC1 -9.24%
O=C(COc1ccccc1Cl)Nc1nnc(S(=O)(=O)N2CCCCCC2)s1 -10.2%
Cc1nn2c(=O)cc(COc3ccc(/C=C(\C#N)C(=O)Nc4ccc(F)cc4)cc3)nc2s1 -4.16%
N#Cc1c(N)n(-c2cccc(Cl)c2)c2nc3ccccc3nc12 -5.31%
COc1cccc(Nc2cc(C)nc3nc(-c4ccc(Cl)cc4)nn23)c1 -12.2%
CCOc1ccc(CNc2nc3nc(C)c(Cc4ccccc4)c(=O)n3[nH]2)cc1 -5.7%
CCc1ccc(CNC(=O)C2Cc3cc(S(=O)(=O)N4CCCCCC4)ccc3N2C(C)=O)cc1 (stereo unspecified) -1.1%
COc1ccc2c(c1)CC(C(=O)Nc1cc(Cl)ccc1C)CO2 (stereo unspecified) -20.3%
COc1cc(NC(=O)Nc2cccc(-c3noc(C)n3)c2)cc(OC)c1OC -4.64%
Cc1cn2c(=O)cc(COc3ccc(Cl)cc3)nc2s1 -1.73%
Cc1ccc(Cl)cc1NC(=O)Cc1ccc(-n2c(C)nc3cccnc32)cc1 -11.1%
CCC(C)n1ncn(-c2ccc(N3CCN(c4ccc(OC[C@H]5CO[C@](Cn6cncn6)(c6ccc(Cl)cc6Cl)O5)cc4)CC3)cc2)c1=O (stereo partly specified) -12.9%
CCOc1ccc(-n2c(=O)c3c(C)c(C)sc3n(CC(=O)N(CC)Cc3ccccc3)c2=O)cc1 -10%
Cc1cccc(NC(=O)C2CCC(CNS(=O)(=O)c3ccc(Br)s3)CC2)c1 (stereo unspecified) -15.3%
Cc1ccc(C)c(C(=O)c2c(N)c(-c3nc(-c4ccc5c(c4)OCO5)cs3)c3ccccn23)c1 -5.98%
COc1cccc(C2CC(=O)N(c3ccc(F)cc3)C3=C2C(=O)OC3)c1OC (stereo unspecified) -12.8%
Cc1ccc(OCC(=O)Nc2ccc(Cl)c(-c3nc4ncccc4o3)c2)c(C)c1 -16.6%
CCCc1nn2c(=O)cc(COC(=O)c3ccccc3NC(=O)c3cccs3)nc2s1 -7.5%
COC(=O)[C@@H]1[C@H]2C[C@H]3c4[nH]c5ccccc5c4CCN3C[C@@H]2CC[C@@H]1O -8.92%
COc1ccc(N(Cc2cccs2)C(=O)c2ccc(OCC(C)C)cc2)cc1 -14.4%
COc1cc(C2c3c(oc4ccccc4c3=O)C(=O)N2c2ccccn2)cc(OC)c1OC (stereo unspecified) 3.49%
Cc1ccc(NC(=O)C2CCCN(S(=O)(=O)c3cccc4cccnc34)C2)cc1 (stereo unspecified) 0.949%
Cc1ccc(Cl)cc1NC(=O)c1oc2ccc(S(=O)(=O)N3CCCCC3)cc2c1C -8.28%
CCc1nonc1NC(=O)c1oc2ccc(Br)cc2c1C 0.318%
CCc1ccc(-n2c(=O)c3c4c(sc3n(CC(=O)N3CCC(C)CC3)c2=O)CCC4)cc1 -3.67%
CC(=O)CSc1nnc2cc(C)c3cc(C)cc(C)c3n12 -1.85%
Cc1nn(C(C)C(=O)N2CCN(c3ccc(Cl)cc3)CC2)c(=O)c2cc3occc3n12 (stereo unspecified) -5.43%
CCOC(=O)c1ccc(NC(=O)CSc2cc(=O)n(CC)c3ccccc23)cc1 -5.73%
